From ChEMBL document CHEMBL4888484, “Replenishing the malaria drug discovery pipeline: Screening and hit evaluation of the MMV Hit Generation Library 1 (HGL1) against asexual blood stage Plasmodium falciparum ,using a nano luciferase reporter read-out” (2022)
Screen size: about 150,000 compounds; about 540 (0.36%) showed an effect of 50% or more. Some of the results follow.

test system: Plasmodium falciparum; test: Primary screen in NF54 nanoGlo assay, in single point, at 2uM, 72h; a lower Z score goes with more inhibition; format: functional, Erythrocyte; conditions: timepoint 72 hour

Compound | % Inhibition | Z score
CCNC(=O)N(C)c1cccc(NC(=O)N2CCO[C@](C)(C3CC3)C2)c1 | -5% | 0.67
CCCN(CC1CC1)C(=O)NCc1sc(C)nc1C | -10% | 1.43
O=C([C@H]1CCCN(C2CCN(Cc3ccccc3F)CC2)C1)N1CCCC1 | -10% | 1.34
CN1CCN(C(=O)C[C@]2(c3ccccc3)CC(=O)N(CC3CCCCC3)C2=O)CC1 | 5% | -0.81
O=C(CCc1cc2n(n1)CCCN(Cc1ccsc1)C2)NCCO | 1% | -0.09
COc1ccc(CNC(=O)[C@]2(C)Cn3nc(-c4cccs4)cc3C(=O)N2c2cc(C)ccc2C)cc1 | -3% | 0.54
COC[C@@]1(C)CCN(C(=O)NCc2ccnc(OC(F)F)c2)C1 | -14% | 1.42
O=C(NCC1CCN(Cc2cccc(Cl)c2)CC1)c1n[nH]c2c1CCc1ccccc1-2 | -20% | 1.78
Cc1cccc(-c2noc(C3CCC(=O)N3CC(=O)NCC3CCCO3)n2)c1 (stereo unspecified) | -6% | 1.22
COCCN(Cc1nc(C(=O)N2CCN(c3ccccc3OC)CC2)cs1)C(=O)Nc1c(C)cccc1C | -12% | 1.31
CC(C)(C)OC(=O)NC1CCC(C(=O)NCc2ccccc2)C1 (stereo unspecified) | 1% | -0.27
CCN(C(=O)CCc1ccccc1F)[C@@H](C)CO | -3% | 0.52
Cc1ccc(-c2cccc(C(=O)NCC3CCOCC3)c2)c(C)n1 | -2% | 0.22
NC(=O)NCc1cc(C2CC2)ccc1F | -3% | 0.45
CCc1[nH]c2ccc(CNC(=O)[C@H]3CCN(CCOC)C3)cc2c1C | 14% | -1.86
NC(=NCC1(c2ccccc2)CCOCC1)NC[C@H]1CCCO1 | -3% | 0.43
CCOc1ccnc(NCC[C@H]2CCCCN2C2CCCC2)n1 | -6% | 0.83
Cc1cc(NC(=O)CN2C(=O)c3ccccc3C2=O)n(C)n1 | 3% | -0.48
CC(C)c1nnc(CN(C/C=C/c2ccccc2)C2CC2)o1 | -11% | 1.55
C[C@H]1CCCN(c2ccc(C(N)=O)cc2-n2cnnc2)C1 | -14% | 2.05
c1cnc(NCCc2nc3c(s2)COCC3)cn1 | 6% | -0.48

Compound | % Inhibition | Z score
COCCN(C)CCNC(=O)N1CCCC(C)C1C (stereo unspecified) | -6% | 0.93
CN1CCO[C@@H](CNCc2noc(C3CC3)n2)C1 | -2% | 0.45
O=C(NCCCn1ccnc1)[C@@H]1Cc2c(ccc3ccccc23)O1 | 4% | -0.47
O=C(c1cccn2c(=O)c3cc(Cl)ccc3nc12)N1CCC(Cc2ccccc2)CC1 | -13% | 1.52
O=C(NCCc1ccncc1)C1CN(C2CCCCC2)C1 | -4% | 0.41
CCCCN(C)C(=O)c1ccc(-n2nc(-c3nnc(C)o3)c(C)c2-c2ccc(F)cc2)cc1 | 9% | -0.97
CN(Cc1nnn(C)n1)C[C@@H]1C[C@H](F)CN1Cc1cccs1 | -7% | 0.95
CC(C)N(C[C@@H]1COc2ccccc2C1)C(=O)c1ccnn1C | -4% | 0.67
CC1(C)C[C@@](C)(c2ccccc2)c2ccccc2N1C(=O)CCc1ccccc1 | 1% | -0.1
COc1ccc(CN(C)c2ncnc3ccsc23)cc1 | -47% | 5.53
COC(=O)CN1CCN(C(=O)C2(O)CCC2)CC1 | -11% | 1.59
NS(=O)(=O)c1ccc(N2CCOCC2)c(-c2nc(-c3ccco3)no2)c1 | 11% | -2.11
N#Cc1c(N)nc2c(c1-c1ccc(CO)o1)CCc1cc(O)ccc1-2 | -3% | 0.47
N#Cc1ccccc1CO[C@H]1CCCc2c[nH]nc21 | -8% | 0.8
O=C(Cc1ccsc1)NCc1ccnc(N2CCCC2=O)c1 | 7% | -1.18
COCc1nnc(CNC(=O)N2CCO[C@H](c3cccc(Cl)c3)[C@H]2C)[nH]1 | -3% | 0.58
Cc1ccsc1[C@H]1CCN(Cc2c(C)nn(C)c2Cl)C[C@@H]1O | -10% | 1.72
Cn1c(C(F)(F)F)nn(C2CCN(C(=O)Cn3cnc4ccccc43)CC2)c1=O | -2% | 0.22
COc1ccc(Cl)cc1NCC(=O)NC(=O)NC1CC1 | -11% | 1.95
CCOC(=O)C1CCCN(C(=O)C(C)NC(=O)c2cc3n(n2)CCCN(Cc2ccc(F)cc2)C3=O)C1 (stereo unspecified) | -10% | 1.24
COc1ccc([C@@H](O)C(=O)N2CCc3c(nc(C)nc3N3CCCC3)C2)cc1 | 0% | 0.05

Compound | % Inhibition | Z score
Cc1ccn2c(-c3csc(Nc4ncccn4)n3)c(C)nc2c1 | -2% | 0.24
COCc1cc(C)nc(OC[C@@H]2OC(c3ccccc3OC)=NN2C(C)=O)c1C#N | 3% | -0.37
N#Cc1cccc(OC2CCN(c3ccc(Cl)c(C#N)n3)CC2)c1 | 12% | -1.44
CN(c1cccc(C(=O)Nc2ccon2)c1)S(=O)(=O)c1ccccc1 | -5% | 0.59
CCc1nsc(NC2CCN(CC(=O)N(CC)CC)CC2)n1 | 3% | -0.36
O=C(O)c1cnc(C=Cc2csc(-c3ccccc3)n2)[nH]c1=O | 5% | -1.03
Cc1ccccc1-n1ncnc1CCN1C[C@@H](C)O[C@@H](C)C1 | -12% | 1.65
N#CCNC(=O)C1CC12CCc1cc(Br)ccc12 (stereo unspecified) | -14% | 1.19
CCN1CCCN(C(=O)c2ccc(-c3cnc4c(C#N)cnn4c3)cc2)CC1 | -13% | 1.57
O=C(CCCn1cncn1)N1CCC[C@H](c2nc3ccccc3s2)C1 | -3% | 0.61
CCOc1cccc2nnc(NC(=O)CCC(=O)NCc3cccc(OC)c3)n12 | -11% | 1.3
c1ccc(-c2noc3c(NC4CCCCCC4)ncnc23)cc1 | -6% | 1.08
COc1ccccc1-c1noc(C(C)(C)CN2CCOCC2)n1 | -20% | 2.56
O=C(CCS(=O)(=O)c1ccc(F)cc1)NCC(=O)NCCc1c[nH]c2ccccc12 | -5% | 0.71
C[C@H]1CN(C(=O)c2c[nH]nc2-c2ccccc2Cl)CCN1 | -14% | 2.1
CCC(C)(C)C(=O)N1CCC(CCOCc2cccc(F)c2)CC1 | -9% | 1.81
COc1ccccc1Nc1nc(C(C(F)(F)F)(C(F)(F)F)C(F)(F)F)nc(C(C(F)(F)F)(C(F)(F)F)C(F)(F)F)n1 | -9% | 1.48
COc1cccc(-c2ccnc3c(C(=O)NCc4ccccn4)cnn23)c1 | 1% | -0.12
CC(C)S(=O)(=O)CCCn1cc(S(=O)(=O)N(C)C)cn1 | -26% | 3.03
CCn1cc(S(=O)(=O)Nc2ccc(-c3nc4ccc(C)cc4s3)cc2)cn1 | -13% | 2.37
COc1ccc(-c2noc(-c3cnc([C@@H]4CCCO4)s3)n2)cc1OC | -1% | 0.22

Compound | % Inhibition | Z score
O=C(N[C@H]1CCOc2ccccc21)c1ccc2ncsc2c1 | -2% | 0.21
COc1ccc(CNC(=O)c2cc3c(=O)[nH]c(-c4ccccc4)cn3n2)cc1OC | -16% | 1.77
O=C(c1ccc(-n2cnnc2)nc1)N1CC[C@@]2(CCCN(CC3CC3)C2=O)C1 | -19% | 2.53
COCC(C)(C)CNC(=O)c1c(C)ncnc1C | -4% | 0.59
CN(Cc1ccco1)c1ccc(S(C)(=O)=O)cc1C(F)(F)F | -10% | 1.53
Cc1csc(CNc2ccn([C@@H](C)c3ccccc3)n2)n1 | -8% | 1.08
O=C(NS(=O)(=O)N1CCN(Cc2ccccc2)CC1)c1cccc2ccccc12 | 14% | -2.15
CCN=C(NCc1nc(C)no1)NC[C@H](C)c1ccc(F)c(F)c1 | -5% | 0.52
O=C1C2CC=CCC2C(=O)N1c1nc2ccccc2s1 (stereo unspecified) | -10% | 1.43
COc1nc(-c2cccc(F)c2)n(-c2ccc(NC(=O)c3ccc(F)cc3)cc2)n1 | -10% | 1.43
Cn1cc([C@H](NC(=O)c2cc3c(s2)CCC3)c2ncon2)cn1 | 1% | -0.14
Cc1cccc(-c2cc(NC(=O)CCCn3ccnc3)[nH]n2)c1C | -1% | 0.16
O=C1C2C(C(=O)N1c1ccc(Cl)cc1)C2(c1ccccc1)c1ccccc1 (stereo unspecified) | -8% | 0.85
CC(C)Oc1cccc(C(=O)NC2CCC3(CC2)NC(=O)NC3=O)n1 (stereo unspecified) | -8% | 0.78
COCCC[C@]1(C(=O)O)CCCN(c2cc(C3CC3)ncn2)C1 | -10% | 1.65
COCC(=O)N1CCc2[nH]cnc2C12CCN(C(=O)c1cc(F)ccc1F)CC2 | -11% | 1.04
CN1CCC(N(C)C(=O)CC[C@H]2CCCN(Cc3nc4ccccc4n3C)C2)CC1 | -2% | 0.26
Cc1ccc(N2CCN(c3ccc(C)cc3)C2c2cccnc2)cc1 | 4% | -0.58
COCCS(=O)(=O)NCc1nc(C(F)(F)F)cs1 | -6% | 0.71
C[C@]12C(=O)N(c3ccccc3C(=O)NCCN3CCOCC3)C(=O)N1CCc1c2[nH]c2ccccc12 | -13% | 1.89
